# Measured values from article PMC4336329 (PLoS ONE, 2015).
# About 14,000 (4.5%) of roughly 310,000 compounds showed an effect of 50% or more. Effects have a minus sign here. This is one part of the list.
# Target: human ether-à-go-go-related gene (hERG) potassium channel (human, UniProt Q12809)
# Assay: primary screen, population patch clamp on CHO cells stably expressing hERG
# 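Note: peak tail current of the secondary pulse compared with the same well before compound.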
# Sequence of human ether-à-go-go-related gene (hERG) potassium channel (Q12809 whole entry, looked up): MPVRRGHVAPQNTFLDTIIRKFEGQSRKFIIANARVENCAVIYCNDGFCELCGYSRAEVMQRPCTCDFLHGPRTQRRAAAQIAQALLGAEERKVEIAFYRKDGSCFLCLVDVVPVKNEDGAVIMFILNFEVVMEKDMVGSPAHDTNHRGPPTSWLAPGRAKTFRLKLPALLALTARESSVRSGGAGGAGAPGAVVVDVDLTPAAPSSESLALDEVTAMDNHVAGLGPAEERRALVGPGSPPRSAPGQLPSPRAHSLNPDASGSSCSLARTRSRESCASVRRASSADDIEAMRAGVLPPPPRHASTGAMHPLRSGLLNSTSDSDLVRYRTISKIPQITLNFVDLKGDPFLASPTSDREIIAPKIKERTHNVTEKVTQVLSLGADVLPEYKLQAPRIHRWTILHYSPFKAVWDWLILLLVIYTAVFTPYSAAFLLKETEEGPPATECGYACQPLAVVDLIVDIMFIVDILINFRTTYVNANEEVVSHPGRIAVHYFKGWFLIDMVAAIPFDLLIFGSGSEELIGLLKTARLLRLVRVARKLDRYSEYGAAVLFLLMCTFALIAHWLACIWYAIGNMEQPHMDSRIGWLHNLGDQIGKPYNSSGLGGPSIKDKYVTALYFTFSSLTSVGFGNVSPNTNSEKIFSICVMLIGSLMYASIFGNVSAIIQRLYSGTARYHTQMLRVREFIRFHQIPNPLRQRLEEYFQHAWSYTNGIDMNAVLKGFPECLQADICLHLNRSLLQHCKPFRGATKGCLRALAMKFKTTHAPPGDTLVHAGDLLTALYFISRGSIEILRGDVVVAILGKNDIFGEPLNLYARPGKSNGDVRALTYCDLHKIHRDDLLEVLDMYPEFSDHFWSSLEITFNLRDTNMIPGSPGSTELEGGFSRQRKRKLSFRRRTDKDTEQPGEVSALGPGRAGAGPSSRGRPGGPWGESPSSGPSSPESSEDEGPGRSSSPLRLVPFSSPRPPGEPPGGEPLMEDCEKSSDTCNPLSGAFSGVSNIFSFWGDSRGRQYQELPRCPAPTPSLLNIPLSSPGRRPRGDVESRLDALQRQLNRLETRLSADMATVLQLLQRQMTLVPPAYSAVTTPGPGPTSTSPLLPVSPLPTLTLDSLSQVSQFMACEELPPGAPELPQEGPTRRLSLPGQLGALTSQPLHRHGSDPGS
row,Structure (SMILES),"hERG current change (%, negative = inhibition) at 10uM [%]"
1,Cc1cc(C)n2ncc(/C(N)=N/OC(=O)c3ccccc3F)c2n1,-0.298
2,CCCc1cc(=O)n2[nH]c(NCc3ccc(OC)cc3)nc2n1,29.5
3,Cc1ccccc1-c1ccc(=O)n(CC(=O)Nc2ccc(-n3cnnn3)cc2)n1,-10.5
4,CCc1ccccc1Nc1nc(-c2cccnc2)cs1,-3.32
5,COc1ccc(Cl)cc1C(Nc1cccnc1)c1ccc2cccnc2c1O (centres unmarked),7.97
6,CSc1nc(C)cc(OCCNS(=O)(=O)c2cc(C)ccc2C)n1,1.36
7,Cc1cccn2c(=O)c3cc(C#N)c(=N)n(CCCN4CCOCC4)c3nc12,-80
8,N#Cc1c(SCC(=O)O)nc(-c2ccccc2)c2c1CCCC2,10.6
9,O=C(N/N=C/c1cn(-c2ccccc2)nc1-c1cc2ccccc2o1)c1cccnc1,-7.63
10,CCN(c1ccc(C)cc1C)S(=O)(=O)c1nnc(NC(=O)c2ccco2)s1,3.88
11,CC(C)C(NC(=O)c1ccc(C(C)(C)C)cc1)C(=O)NCC1(N(C)C)CCCCC1 (centres unmarked),-4.01
12,Cc1cc(C(=O)NCCCc2ccccc2)no1,1.78
13,CCOC(=O)/C=C/C(=O)N1CCc2ccccc21,0.96
14,COc1cccc(C(=O)Nc2ccc(N3CCN(C(=O)c4ccco4)CC3)cc2)c1,3.15
15,COc1ccc(/C=C2\SC(=S)N(CCCC(=O)NNC(=O)c3ccccc3O)C2=O)cc1,34.6
16,CC(C)(C)SCCNC(=O)c1ccc(Cl)c([N+](=O)[O-])c1,-16.8
17,CCc1ccc(OCC(=O)NNC(=O)c2cc(S(=O)(=O)N(C)C)ccc2N2CCCC2)cc1,-23.4
18,CSc1ccc(S(=O)(=O)NCC(=O)OCC(=O)NCc2cccs2)cc1[N+](=O)[O-],-44.5
19,CCOc1ccc(CCNC(=O)C(C)n2nc(C)n3c(cc4occc43)c2=O)cc1OCC (centres unmarked),0.513

row,Structure (SMILES),"hERG current change (%, negative = inhibition) at 10uM [%]"
1,CC(=O)N1CCc2cc(S(=O)(=O)Nc3ccccc3N3CCN(C)CC3)ccc21,-6.97
2,Nc1nc(-c2ccccc2)cc(N2CCCCC2)n1,-46
3,c1ccc(Cc2noc(CN3CCCC(CN4CCOCC4)C3)n2)cc1 (centres unmarked),3.47
4,CCC(NC(=O)C1(C)CC1(Br)Br)c1ccc(C)cc1 (centres unmarked),-12.3
5,O=c1[nH]c(=S)n(C2CCCCC2)c(O)c1/C=N/N1CCOCC1,-29.8
6,O=C(C1CCOCC1)N1CCC(CO)(CCc2ccccc2)CC1,5.29
7,Cc1[nH]c2ccccc2c1/C=C(/C#N)C(=O)NC(C)C,13.2
8,O=C(OCC1COc2ccccc2O1)c1ccccc1F (centres unmarked),-11
9,Cc1nn(C)c(Cl)c1C(=O)NCC(=O)Nc1ccc(C(C)C)cc1,-5.26
10,CCCC(=O)Nc1cc(C)c(NC(=O)c2ccco2)cn1,18.3
11,CC(C)CC(=O)Nc1ccccc1N1CCN(C(=O)c2ccccc2)CC1,-17.7
12,CCOc1ccc(CCNC(=O)CS(=O)Cc2nc(-c3ccc(C)cc3)oc2C)cc1OCC (centres unmarked),-26.7
13,CCN(CC(=O)NCc1ccc(Cl)cc1)C(=O)Cc1ccc(OC)cc1,-75.7
14,NS(=O)(=O)c1ccc(CCNC(=O)CSc2cccs2)cc1,8.78
15,CC(Sc1nc2cc([N+](=O)[O-])ccc2n1-c1cccc(C(F)(F)F)c1)C(=O)NC(N)=O (centres unmarked),13.6
16,C=CCn1c(SCC(=O)NC2CCCC2)nnc1-c1ccncc1,16.2
17,C=CCOc1nc(N2CCCC2)nc(N2CCCC2)n1,-22.6
18,CC(/C=C/c1ccccc1F)=N\NC(=O)c1cccc(F)c1,8.89
19,CC(C)(C)c1ccc(OCCC(=O)OCC(=O)Nc2cccnc2Cl)cc1,-2.33

row,Structure (SMILES),"hERG current change (%, negative = inhibition) at 10uM [%]"
1,O=C(Nc1ccccc1N1CCCC1)c1cc(S(=O)(=O)N2CCOCC2)ccc1Cl,-34.5
2,CN1CCN(C(=O)c2ccc(N3CCCC3=O)cc2)CC1,16.2
3,Cn1c2ccccc2c(=O)c2cc(C#Cc3cccc(N)c3)ccc21,12.3
4,CCn1ccnc1CN1CCC(n2nccc2NC(=O)c2ccccc2OC)CC1,-69.9
5,COc1ccc2ccccc2c1CN1CCN(C(=O)c2ccco2)CC1.O=C(O)C(=O)O,-48.7
6,CCN1CCCC1CNC(=O)c1ccc(CS(=O)(=O)c2ccccc2C)o1 (centres unmarked),-13.7
7,CCOC(=O)Cn1c(=O)oc2cc(S(=O)(=O)N(C)c3cccc(C)c3)ccc21,-30.3
8,COc1cnn(-c2ccc(F)cc2)c(=O)c1Br,20.4
9,CN(NS(=O)(=O)c1ccccc1)c1nc2ccccc2nc1C(F)(F)F,6.35
10,O=C(NCCc1ccccc1F)C(=O)Nc1nccs1,4.15
11,CC(C)n1nc(C(=O)NNC(=O)c2ccncc2)c2ccccc2c1=O,3.56
12,CCn1c(C)c2c([n+]1CC)CC(C)(C)CC2=O.[I-],8.58
13,CC(=O)Nc1ccc(NS(=O)(=O)c2cc(-c3cnc(C4CC4)o3)ccc2C)cc1,20.3
14,O=C1CN(C(=O)COc2ccc(Cl)cc2Cl)c2ccccc2N1,14.2
15,CN(C/N=C(\N)N[N+](=O)[O-])S(=O)(=O)c1ccccc1,19.4
16,Cc1ccc(OCC(=O)Nc2ccc3c(c2)nc2n3CCOC2)cc1,-35.9
17,CCn1cc(/C=C(\NC(=O)c2cc(OC)c(OC)c(OC)c2)C(=O)NCCN2CCOCC2)c2ccccc21,10.8
18,COc1ccc(NC(=S)NCCc2ccccc2OC)c(OC)c1,-31.6
